The results in this text go back to article PMC4336329 (PLoS ONE, 2015).

Each structure is given as a SMILES string. Out of some 310,000 compounds screened, about 14,000 (4.5%) showed an effect of 50% or more. The effect is printed as a negative number. The list shows a part of the results.
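Further: peak tail current of the secondary pulse compared with the same well before compound.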

Chain of human ether-à-go-go-related gene (hERG) potassium channel (Q12809 whole entry, looked up): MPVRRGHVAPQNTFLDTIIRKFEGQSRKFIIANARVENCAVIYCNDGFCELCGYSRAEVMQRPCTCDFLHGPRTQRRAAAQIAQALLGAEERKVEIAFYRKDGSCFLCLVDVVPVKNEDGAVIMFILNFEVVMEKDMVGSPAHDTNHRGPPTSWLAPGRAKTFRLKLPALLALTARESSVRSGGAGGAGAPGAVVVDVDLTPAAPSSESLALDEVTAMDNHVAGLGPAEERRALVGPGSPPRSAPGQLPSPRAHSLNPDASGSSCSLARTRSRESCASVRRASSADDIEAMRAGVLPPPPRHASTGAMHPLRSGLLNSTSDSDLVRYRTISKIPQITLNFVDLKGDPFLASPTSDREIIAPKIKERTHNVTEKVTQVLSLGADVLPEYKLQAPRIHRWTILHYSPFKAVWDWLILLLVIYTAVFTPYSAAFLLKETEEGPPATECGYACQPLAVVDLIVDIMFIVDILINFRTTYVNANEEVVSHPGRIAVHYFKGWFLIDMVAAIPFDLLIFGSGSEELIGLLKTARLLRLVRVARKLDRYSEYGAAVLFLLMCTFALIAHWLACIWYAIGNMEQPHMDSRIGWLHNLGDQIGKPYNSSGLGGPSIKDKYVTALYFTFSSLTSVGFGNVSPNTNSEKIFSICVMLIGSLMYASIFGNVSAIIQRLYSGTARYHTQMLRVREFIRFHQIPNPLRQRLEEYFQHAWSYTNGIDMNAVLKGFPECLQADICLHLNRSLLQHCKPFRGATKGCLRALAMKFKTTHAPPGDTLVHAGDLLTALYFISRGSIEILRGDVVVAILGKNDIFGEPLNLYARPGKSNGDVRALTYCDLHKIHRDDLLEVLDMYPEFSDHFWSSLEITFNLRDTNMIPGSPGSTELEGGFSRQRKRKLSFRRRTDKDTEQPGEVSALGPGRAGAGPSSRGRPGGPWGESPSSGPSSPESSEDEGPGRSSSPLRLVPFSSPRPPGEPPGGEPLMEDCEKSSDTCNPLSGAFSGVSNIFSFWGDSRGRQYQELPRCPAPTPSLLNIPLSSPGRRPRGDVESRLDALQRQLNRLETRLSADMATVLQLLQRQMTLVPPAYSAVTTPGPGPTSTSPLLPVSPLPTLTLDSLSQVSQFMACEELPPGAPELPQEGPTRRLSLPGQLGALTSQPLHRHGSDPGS

The assay addresses human ether-à-go-go-related gene (hERG) potassium channel (human, UniProt Q12809). The experiment in a line: primary screen, population patch clamp on CHO cells stably expressing hERG.
In the case of `Cl.NNc1nc(-c2ccccc2)cs1`, the “hERG current change (%, negative = inhibition) at 10uM” value amounted to 29.7%.

Regarding `O=C(NCC1CCCCC1)c1cc(S(=O)(=O)N2CCCCC2)ccc1Cl`, the “hERG current change (%, negative = inhibition) at 10uM” value is reported as -16.9%. As for `CC(C)c1ccc(N2C(=O)[C@@H]3Cc4ccccc4CN3C2=O)cc1`, the figure is 28.8%; as for `Fc1cccc(/C=N/Nc2ccc3ccccc3n2)c1`, 5.91%. As for `CCOC(=O)Cn1c(=O)c(C#N)cn(C(C)C)c1=O`, the figure is 9.76%; as for `CCOC(=O)c1cnc2c(C)cc(C)cc2c1Nc1ccc(S(=O)(=O)Nc2ncccn2)cc1`, -0.317%; as for `CCOC(=O)C1=NN(c2ccc(C)cc2)CC1C(=O)OC` (stereo not drawn), -2.11%. As for `Cc1ccsc1C(=O)NCc1ccccc1Cl`, the figure is 16.9%. `Cc1ccnc(NC(=O)CCC(=O)N(CC(=O)NC2CCCCC2)c2cccc(C)c2C)c1`: the “hERG current change (%, negative = inhibition) at 10uM” value is listed as 4.89%.

Take `Cc1ccc2nc(SCC(=O)Nc3nnc(SCC(N)=O)s3)[nH]c2c1`: the “hERG current change (%, negative = inhibition) at 10uM” value was found to be 8.22%. Turning to `C=Cc1c(C)c2cc3[nH]c(cc4nc(cc5nc(cc1[nH]2)C(C)=C5CCC(=O)[O-])C(CCC(=O)[O-])=C4C)c(C)c3C=C.[Na+]`, the “hERG current change (%, negative = inhibition) at 10uM” value was 15.4%. As to `CCC(CC)c1nnc(NC(=O)c2ccc(S(=O)(=O)N3CCc4ccccc4C3)cc2)s1`, the “hERG current change (%, negative = inhibition) at 10uM” value is given as 15.2%. Under `Cc1ccc2nc(SCC(=O)NCc3cccs3)c(C#N)cc2c1` stands -4.38%; under `O=P(OCC1CC1)(c1ccccc1)c1ccccc1`, 8.08%. As for `CCCC(O)(c1ccc(OC)cc1)C(CN(C)C)c1ccccc1` (stereo not drawn), the figure is -4.69%.

As to `COc1ccc(CN2CCN(C(=O)Cn3ncn4cccc4c3=O)CC2)c(OC)c1OC`, the “hERG current change (%, negative = inhibition) at 10uM” value is reported as -0.055%. Regarding `COc1cc(NC(=O)c2c(-c3ccccc3Cl)noc2C)c2ncccc2c1`, the “hERG current change (%, negative = inhibition) at 10uM” value turned out to be 25.5%. In the case of `COc1cccc(C(=O)N2CCN(C(=O)C3COc4ccccc4O3)CC2)c1` (stereo not drawn), the “hERG current change (%, negative = inhibition) at 10uM” value is -19.5%. Under `Cc1cc(C)nc(/N=C(\N)Nc2ccc(C)c([N+](=O)[O-])c2)n1` stands -5.32%.

As to `CC(C)N1CCN(Cc2nc(-c3ccccc3)cs2)CC1CCO` (stereo not drawn), the “hERG current change (%, negative = inhibition) at 10uM” value is listed as -47.7%.

Turning to `O=C(NCC1CCCO1)c1ccc(NC(=O)c2cccc([N+](=O)[O-])c2)cc1` (stereo not drawn), the “hERG current change (%, negative = inhibition) at 10uM” value was 3.68%. For the compound `CCOc1cc(C2NC(=O)NC(C)=C2C(=O)OC(C)CC)cc(Br)c1O` (stereo not drawn), the “hERG current change (%, negative = inhibition) at 10uM” value was -5.51%. For the compound `COc1ccccc1CC(=O)Nc1cc(C)ccn1`, the “hERG current change (%, negative = inhibition) at 10uM” value stood at 11.2%. As for `COc1ccc(C)cc1S(=O)(=O)NCC(c1ccc2c(c1)OCO2)N1CCN(C)CC1` (stereo not drawn), the figure is -68.2%. Take `COc1ccc(CNC(N)=O)cc1OC`: the “hERG current change (%, negative = inhibition) at 10uM” value worked out at 0.126%. As for `COc1ccc(/C=N\NS(=O)(=O)c2ccc(Cl)cc2)cc1COc1ccccc1[N+](=O)[O-]`, the figure is -16.6%; as for `O=C(O)C(=O)O.c1ccc(OCCN2CCN(C(c3ccccc3)c3ccccc3)CC2)cc1`, -14.6%. As for `CC(C)Oc1ccc(/C(O)=C2/C(=O)C(=O)N(Cc3cccnc3)C2c2ccco2)cc1` (stereo not drawn), the figure is 23.5%; as for `Cc1ccc2cc(/C=N/NC(=O)c3ccccc3[N+](=O)[O-])c(Cl)nc2c1`, -5.33%; as for `Cl.O=[N+]([O-])c1cccc(C2NCC(c3ccccc3Cl)c3c2[nH]c2ccccc32)c1` (stereo not drawn), 18.3%. As to `COc1cccc(CN(C)S(=O)(=O)c2cccs2)c1`, the “hERG current change (%, negative = inhibition) at 10uM” value is reported as -6.47%. Under `Cc1cc(C)c(S(=O)(=O)Nc2ccccc2C(=O)N2CCOCC2)c(C)c1` stands -22%. Turning to `Cn1c(SCc2ccc(C#N)cc2)nnc1-c1ccccc1`, the “hERG current change (%, negative = inhibition) at 10uM” value is recorded as -29%. Under `CN(C)C(=O)COC(=O)c1ccc(S(=O)(=O)NCc2ccco2)cc1` stands 19.6%; under `O=C1NCCCC1C(=O)N/N=C/c1cccc([N+](=O)[O-])c1` (stereo not drawn), -0.521%; under `O=C(O)CC(SCC(=O)Nc1ccc(Br)cc1)C(=O)O` (stereo not drawn), 28.8%. `CCC(C)NCC(=O)Nc1cc(S(=O)(=O)N(CC)c2ccccc2)ccc1Cl` (stereo not drawn): the “hERG current change (%, negative = inhibition) at 10uM” value is given as -78.8%. As to `CC(OC(=O)CCc1nc2ccccc2c(=O)[nH]1)C(=O)Nc1ncc(Cl)cc1Cl` (stereo not drawn), the “hERG current change (%, negative = inhibition) at 10uM” value is recorded as 14.2%. Under `CCc1nnc2n1N=C(c1ccc(Cl)cc1Cl)CS2` stands -10.6%; under `O=C(O)c1cc([N+](=O)[O-])ccc1NCc1ccccc1`, 15.6%. Under `O=C(NC(=S)Nc1ccc(Cc2ccncc2)cc1)c1ccccc1F` stands -3.24%. Regarding `Cc1ccc(-c2nc(CSc3nc4ccccc4c(=O)n3CCO)cs2)cc1`, the “hERG current change (%, negative = inhibition) at 10uM” value is given as 5.39%. Under `CC12CN3CC(C)(CN(C1)P3(=O)Oc1ccccc1)C2=O` (stereo not drawn) stands 8.3%; under `CC(C)c1onc(C(=O)N2CCCCC2C)c1[N+](=O)[O-]` (stereo not drawn), 12.7%; under `Cc1ccoc1C(=O)Nc1cccc(Oc2ccccc2)c1`, 5.12%. `O=C(COC(=O)Cc1ccccc1F)Nc1ccccc1[N+](=O)[O-]`: the “hERG current change (%, negative = inhibition) at 10uM” value was -9.66%. As for `CCn1c(SCC(=O)Nc2ccc3c(c2)OCO3)nc2c1c(=O)n(C)c(=O)n2C`, the figure is -0.539%; as for `O=C(O)C1CCCN(S(=O)(=O)c2ccc(-c3ccc(=O)[nH]n3)s2)C1` (stereo not drawn), 16.5%; as for `COc1ccc(CNC(=O)CCSc2nc(-c3ccc4c(c3)OCO4)cc(C(F)(F)F)n2)cc1`, -4.91%. As for `CN(CCc1ccccn1)C(=O)CC1C(=O)NCCN1Cc1cccc(F)c1` (stereo not drawn), the figure is 9.31%; as for `O=C(NCc1ccccc1)C(c1ccco1)N(C(=O)c1ccccn1)c1ccc(F)cc1` (stereo not drawn), 2.64%. As for `CCOC(=O)n1c(=O)n(Cc2ccc(Cl)c(Cl)c2)c2ccccc21`, the figure is 2.5%; as for `COc1ccc(N(CC(=O)N/N=C/c2cccnc2)S(=O)(=O)c2ccccc2)c(OC)c1`, -40.6%; as for `CCN(CC)c1ccc2cc(/C(N)=N/NC(=O)c3cccs3)c(=O)oc2c1`, -3.48%.
